Experimental data: PubChem BioAssay AID504332 (National Center for Advancing Translational Sciences (NCATS), 2011)
Screen size: about 350,000 compounds; about 31,000 (8.9%) were called active. The shares of active, inactive and inconclusive entries below differ from those in the screen. Calls come from the whole dose curve; as a rule, active = well fitted inhibition curve with a large enough effect; inconclusive = small, poorly fitted or top-dose-only effect; inactive = no such curve, though single readings can be large or run the other way. Where the call is inconclusive, the potency comes from a doubtful curve fit.
% is set by controls: 0 for no effect and ±100 for the full control effect; potency is the fitted concentration of half-maximal effect; tags give direction and shape of the fitted curve.
Note: nearly all actives have a fitted effect of over 75% in size.

Each molecule was assayed against Histone-lysine N-methyltransferase EHMT2 (Homo sapiens) (UniProt Q96KQ7) (assay: qHTS Assay for Inhibitors of Histone Lysine Methyltransferase G9a). Settings: G9a H3K9 monomethylation, AlphaScreen, 2 h; activity, negative = inhibition: at 59 µM (top of the series) unless noted.
Sequence of UniProt Q96KQ7 (Q96KQ7 whole entry, looked up): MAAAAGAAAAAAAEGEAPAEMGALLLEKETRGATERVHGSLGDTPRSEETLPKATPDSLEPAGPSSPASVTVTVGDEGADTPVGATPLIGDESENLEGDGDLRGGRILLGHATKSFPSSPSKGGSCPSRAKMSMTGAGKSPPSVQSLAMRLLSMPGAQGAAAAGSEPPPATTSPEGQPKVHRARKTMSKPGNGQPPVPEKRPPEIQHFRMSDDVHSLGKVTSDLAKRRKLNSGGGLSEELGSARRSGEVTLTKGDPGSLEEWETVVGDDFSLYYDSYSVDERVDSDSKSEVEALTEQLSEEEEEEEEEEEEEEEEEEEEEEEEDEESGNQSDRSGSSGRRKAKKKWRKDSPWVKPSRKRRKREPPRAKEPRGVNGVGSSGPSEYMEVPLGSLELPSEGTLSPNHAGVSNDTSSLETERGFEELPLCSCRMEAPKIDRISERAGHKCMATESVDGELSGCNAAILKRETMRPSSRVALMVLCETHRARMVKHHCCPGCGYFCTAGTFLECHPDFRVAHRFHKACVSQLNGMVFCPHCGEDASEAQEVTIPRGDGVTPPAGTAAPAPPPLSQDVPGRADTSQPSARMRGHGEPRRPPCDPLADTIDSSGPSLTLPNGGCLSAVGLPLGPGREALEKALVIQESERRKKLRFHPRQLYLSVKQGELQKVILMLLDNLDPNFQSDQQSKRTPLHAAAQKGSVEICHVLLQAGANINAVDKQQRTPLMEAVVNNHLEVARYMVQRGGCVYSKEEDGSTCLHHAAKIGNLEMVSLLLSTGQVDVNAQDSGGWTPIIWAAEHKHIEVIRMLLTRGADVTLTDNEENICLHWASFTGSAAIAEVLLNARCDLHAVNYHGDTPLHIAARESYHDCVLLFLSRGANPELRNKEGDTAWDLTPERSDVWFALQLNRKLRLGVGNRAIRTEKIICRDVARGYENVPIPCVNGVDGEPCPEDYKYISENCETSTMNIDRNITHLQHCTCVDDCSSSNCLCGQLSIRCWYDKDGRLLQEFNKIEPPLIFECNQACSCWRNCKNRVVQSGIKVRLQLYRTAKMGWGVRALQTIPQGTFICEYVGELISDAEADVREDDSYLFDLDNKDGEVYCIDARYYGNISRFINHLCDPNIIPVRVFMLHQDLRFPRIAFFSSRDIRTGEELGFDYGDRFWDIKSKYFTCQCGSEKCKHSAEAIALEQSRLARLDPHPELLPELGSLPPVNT
Method in brief: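 AlphaScreen read-out: biotin-H3K9 peptide (500 nM) methylation by 20 nM enzyme with 20 uM SAM, 2 h at room temperature after 15 min compound preincubation; anti-monomethyl H3K9 antibody plus donor/acceptor beads, 10 min dark.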
For `CC(=O)NC1=NN(C(C)=O)C2(S1)C(=O)N(C(C)C)c1ccc(C)cc12` (configuration not stated), the Potency was active: 50.1 µM. `CCN(CC)C(=O)C1CCN(Cc2ccc(OCc3ccccc3)c(OC)c2)CC1` was tested, and the Potency was active: 50.1 µM. `CCOC(=O)c1c(CN2CCOCC2)n(-c2ccccc2)c2cc(Br)c(O)c(CN(C)C)c12` was tested, and the activity, negative = inhibition was inconclusive: -64% [inhibitor]. With `COc1cc(OC)cc(C(=O)N2CCN(Cc3cccc(F)c3)CC2)c1` the Potency was active: 8.91 µM. For `Cc1nc2ccn(Cc3cccs3)c(=O)c2cc1C(=O)Nc1ccccc1`, the “activity, negative = inhibition” value was inactive: -7.46%. For `COc1ccc(-n2c(O)c(/C=N/NS(=O)(=O)c3cc(C)ccc3C)c3ccccc3c2=O)cc1OC`, the Potency was inconclusive: 31.6 µM [inhibitor, single point]. For `CC1=C(C(=O)NCc2ccc(Cl)cc2)C2(CCCCC2)OC1=O`, the “activity, negative = inhibition” value was inactive: -45.4%. `Cc1ccc(/C=C/c2onc(C)c2S(=O)(=O)N2CCC(C(=O)NCC(C)c3ccccc3)CC2)cc1` (configuration not stated) was tested, and the “activity, negative = inhibition” value was inactive: 4.5%. In the case of `CNC(=O)c1ccc(NC(=O)C2CCN(S(=O)(=O)c3cccc(C(F)(F)F)c3)CC2)cc1`, the Potency is reported as inconclusive: 7.08 µM [inhibitor, single point]. With `Cc1c(C2=CCN(S(=O)(=O)c3ccc(Br)cc3)CC2)c2ccccc2n1C` the Potency was active: 39.8 µM. In the case of `C=CCn1c(CCCOc2ccc(Cl)cc2Cl)n[nH]c1=S`, the Potency is reported as inconclusive: 1 µM [inhibitor, full curve, poor fit]. With `Cc1ccc(CNC(=O)C23CN(Cc4ccccc4)CC2C(c2ccc([N+](=O)[O-])cc2)=NO3)cc1` (configuration not stated) the Potency was inconclusive: 10 µM [inhibitor, partial curve, poor fit]. With `COc1ccc(CC(=O)NCC(=O)N/N=C/c2c[nH]c3ccccc23)cc1` the “activity, negative = inhibition” value was inactive: 23.6% [at 102 µM]. With `COc1ccc(S(=O)(=O)N2CCOC23CCN(S(=O)(=O)c2cc(F)ccc2F)CC3)cc1` the “activity, negative = inhibition” value was inactive: -4.43% [at 102 µM]. With `O=[N+]([O-])c1cccc(-c2nc(Oc3ccc(Cl)cc3)c3ccccc3n2)c1` the Potency was active: 11.2 µM. For `CC(C)(C)CC(=O)N1CCN(Cc2ccc3c(c2)OCO3)CC1`, the “activity, negative = inhibition” value was inactive: 12.5% [at 102 µM]. With `CCOC(=O)c1ccc[n+](CC(=O)c2ccc(OC)cc2)c1` the Potency was inconclusive: 8.91 µM [inhibitor, partial curve]. `Cc1ccc(CN2C(=O)c3oc4ccc(C)cc4c(=O)c3C2c2ccc(O)cc2)cc1` (configuration not stated) was tested, and the Potency was inconclusive: 0.112 µM [inhibitor, full curve, poor fit]. In the case of `OCCc1ccc(-c2ccc(Cl)cc2)o1`, the activity, negative = inhibition is reported as inconclusive: -101% [inhibitor]. In the case of `CN1c2ccsc2/C(=N/Nc2ccc(F)cc2)CS1(=O)=O`, the Potency is reported as active: 14.1 µM. In the case of `COC(=O)C1=C(C)N(c2cccc(C)c2)C(=O)/C1=C\c1cccs1`, the Potency is reported as active: 11.2 µM. With `O=C(O)c1cccnc1SC1CC(=O)N(CCc2ccccc2)C1=O` (configuration not stated) the Potency was inconclusive: 1.58 µM [inhibitor, full curve, poor fit]. `C=CCNCCOc1cccc(Br)c1` was tested, and the Potency was inconclusive: 0.562 µM [inhibitor, partial curve, poor fit]. With `COc1cccc(OC)c1OCCCN1CCOCC1` the Potency was inconclusive: 28.2 µM [inhibitor, single point]. For `Fc1cccc(Nc2ncnc3sc4c(c23)CCC4)c1`, the Potency was active: 20 µM. `CCc1ccc2[nH]c(=O)c(CN(CCN(C)C)C(=O)Nc3ccccc3OC)cc2c1` was tested, and the Potency was inconclusive: 89.1 µM [inhibitor, partial curve, poor fit]. In the case of `Cc1ccc(OCC(=O)N(Cc2ccco2)Cc2ccc(C)o2)cc1`, the “activity, negative = inhibition” value is reported as inactive: -27.5%. In the case of `Nn1cnnc1N/N=C\c1ccc(-c2ccccc2[N+](=O)[O-])o1`, the Potency is reported as active: 35.5 µM. `Cc1ccc(C)c(Nc2ccc3nonc3c2[N+](=O)[O-])c1` was tested, and the Potency was inconclusive: 8.91 µM [inhibitor, full curve]. In the case of `O=C(O)c1ccc(Nc2nc3ccccc3nc2NS(=O)(=O)c2cccs2)cc1`, the Potency is reported as active: 50.1 µM. For `COC(=O)c1c(Cc2ccccc2Cl)c[nH]c1C`, the Potency was inconclusive: 89.1 µM [inhibitor, single point]. With `COc1cc(/C=C/c2[nH]c(=O)[nH]c(=O)c2[N+](=O)[O-])ccc1OCCC(C)C` the Potency was inconclusive: 39.8 µM [inhibitor, partial curve]. In the case of `COCCCNC(=O)C1CCN(c2nn3cc(-c4ccc(F)cc4)nc3s2)CC1`, the “activity, negative = inhibition” value is reported as inactive: -4.56%. For `COc1cc(C(C(=O)NC(C)(C)C)N(Cc2ccc3c(c2)OCO3)C(=O)c2cnccn2)cc(OC)c1OC` (configuration not stated), the activity, negative = inhibition was inactive: 12.7% [at 12.7 µM]. For `CSc1ccc(-c2nc(O)c3cnccn23)cc1`, the Potency was active: 39.8 µM. For `COc1ccccc1C(=O)Nc1sc(C(=O)N2CCCC2)c(C)c1C#N`, the Potency was inconclusive: 39.8 µM [inhibitor, full curve]. With `O=C1CC(c2ccc(Cl)cc2)n2nc(N3C(=O)CCC3=O)nc2N1` (configuration not stated) the Potency was inconclusive: 70.8 µM [inhibitor, partial curve, poor fit]. With `CCOc1ccc(N2CC(C(=O)Nc3nnc(SCCOC)s3)CC2=O)cc1` (configuration not stated) the Potency was active: 70.8 µM. In the case of `C#C[C@]1(O)CC[C@H]2[C@@H]3CCC4=CCCC[C@@H]4[C@H]3C(=C)C[C@@]21CC`, the activity, negative = inhibition is reported as inactive: 5.45% [at 12.7 µM]. In the case of `O=C(NCc1ccc(Cl)cc1)c1ccc(NC(=O)C2CCCO2)cc1` (configuration not stated), the Potency is reported as inconclusive: 8.91 µM [inhibitor, partial curve, poor fit]. In the case of `CCOc1ccc(NC(=O)CN2CCN(CC(=O)Nc3cc(OC)cc(OC)c3)CC2)cc1`, the activity, negative = inhibition is reported as inconclusive: -94.6% [inhibitor]. With `COc1ccc(O)c(C(=O)c2cnn(-c3ccccc3)c2)c1` the Potency was active: 4.47 µM. For `Cc1c(C)[n+](=O)c2c(n1[O-])C(Br)CCC2Br` (configuration not stated), the Potency was active: 1 µM. In the case of `COc1c(C=O)c(O)cc2c1C(=O)c1ccccc1C2=O`, the Potency is reported as active: 5.01 µM. With `CC1=C(C(=O)OC(C)C)C(c2ccc(F)cc2)NC(=O)N1` (configuration not stated) the Potency was inconclusive: 79.4 µM [inhibitor, single point]. With `C=CCN=C1NN=C(c2cc(C)n(CC=C)c2C)CS1` the Potency was inconclusive: 39.8 µM [inhibitor, single point]. For `CSCCC(NC(=O)c1cccc(S(=O)(=O)N2CCOCC2)c1)C(=O)Nc1ccc(F)cc1` (configuration not stated), the Potency was active: 7.08 µM.
